From paper PMC4336329 (PLoS ONE, 2015)
Screen size: about 310,000 compounds; about 2,200 (0.71%) showed an effect of 50% or more. The effect is printed as a negative number. Some of the results follow.

Target: human ether-à-go-go-related gene (hERG) potassium channel (human, UniProt Q12809)
Assay: primary screen, population patch clamp on CHO cells stably expressing hERG

human ether-à-go-go-related gene (hERG) potassium channel, sequence (Q12809 whole entry, looked up): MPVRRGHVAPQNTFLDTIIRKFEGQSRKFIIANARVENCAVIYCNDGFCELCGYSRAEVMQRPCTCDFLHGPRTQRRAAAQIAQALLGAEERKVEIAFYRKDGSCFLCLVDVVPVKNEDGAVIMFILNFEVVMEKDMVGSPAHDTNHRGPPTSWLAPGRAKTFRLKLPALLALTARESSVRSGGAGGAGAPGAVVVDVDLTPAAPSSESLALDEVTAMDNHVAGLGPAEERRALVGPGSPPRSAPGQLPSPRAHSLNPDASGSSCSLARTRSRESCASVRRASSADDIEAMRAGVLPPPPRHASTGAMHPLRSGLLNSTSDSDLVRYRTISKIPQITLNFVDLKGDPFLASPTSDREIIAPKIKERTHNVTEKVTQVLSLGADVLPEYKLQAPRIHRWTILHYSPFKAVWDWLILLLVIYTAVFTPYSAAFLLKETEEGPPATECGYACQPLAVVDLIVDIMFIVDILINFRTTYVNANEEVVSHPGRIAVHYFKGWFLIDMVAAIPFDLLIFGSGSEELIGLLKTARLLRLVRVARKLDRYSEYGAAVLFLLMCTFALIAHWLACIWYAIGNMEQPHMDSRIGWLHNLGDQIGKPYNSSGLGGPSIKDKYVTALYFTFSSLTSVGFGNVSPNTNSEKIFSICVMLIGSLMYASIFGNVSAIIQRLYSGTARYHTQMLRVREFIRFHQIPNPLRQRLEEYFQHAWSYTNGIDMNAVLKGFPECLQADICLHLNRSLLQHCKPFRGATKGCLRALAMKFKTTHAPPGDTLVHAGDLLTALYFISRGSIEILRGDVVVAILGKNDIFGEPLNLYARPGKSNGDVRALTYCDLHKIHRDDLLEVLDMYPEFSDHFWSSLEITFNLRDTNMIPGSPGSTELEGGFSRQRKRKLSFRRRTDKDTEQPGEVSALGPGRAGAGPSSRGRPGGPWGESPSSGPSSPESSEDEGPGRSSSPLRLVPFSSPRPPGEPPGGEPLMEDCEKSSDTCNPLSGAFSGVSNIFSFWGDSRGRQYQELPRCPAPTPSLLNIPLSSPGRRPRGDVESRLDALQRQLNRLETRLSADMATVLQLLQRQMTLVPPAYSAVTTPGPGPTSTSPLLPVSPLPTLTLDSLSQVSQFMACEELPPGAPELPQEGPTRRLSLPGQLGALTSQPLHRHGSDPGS

SMILES	hERG current change (%, negative = inhibition) at 1uM [%]
CCOc1cc(S(=O)(=O)NCc2ccc3c(c2)OCO3)ccc1F	10.6
CCCCN(C)C(=O)CCC(=O)Nc1ccc2nc(N3CCN(C)CC3)cc(C)c2c1	4.32
COc1ccc(C2Oc3ccccc3C3=C2C(c2cccs2)n2ncnc2N3)cc1 (centres unmarked)	-6.5
Cc1ccc(C)c2[nH]c(=O)c(CN(Cc3ccc4c(c3)OCO4)Cc3nnnn3Cc3ccco3)cc12	1.76
O=C(Nc1cccc(-n2cnnn2)c1)c1ccco1	8.04
CCOc1cc(-c2noc(CCC(=O)NCCc3ccccc3)n2)ccc1OC	14
COc1ccc(NC(=O)c2cncc(Br)c2)cc1S(=O)(=O)N1CCCCC1	6.65
COc1ccc(OC)c(N=C(N)N=C(N)N)c1	6.95
O=C(Cc1csc(-c2ccccc2)n1)NCc1ccc(F)cc1	4.14
COC(=O)c1cc(C(=O)OC)cc(N2C(=O)CN=C2Nc2nc(C)cc(C)n2)c1	8.41
O=C(/C=C/Nc1ccccc1)C(F)(F)F	5.89
Cc1ccc(S(=O)(=O)c2cc(O)ccc2O)cc1C	3.35
Nc1nonc1N/N=C\c1ccccc1	3.26
O=C1NC2(CCc3ccccc32)C(=O)N1CCOc1ccc(Cl)cc1 (centres unmarked)	11.2
O=C(NCc1cccs1)c1cc(-c2ccncc2)nc2ccc(Br)cc12	13.2
CCOC(=O)C1(Cc2ccc(Cl)cc2)CCN(C(=O)c2ccoc2)CC1	-1.32
Cc1ccc(C(=O)O/N=C(\N)c2ccccc2)c(Cl)c1	4.28
CC(C(=O)N1CCN(Cc2ccccc2)CC1)c1ccc([N+](=O)[O-])cc1 (centres unmarked)	-1.49
CCCCC(=O)Nc1ccc(C(=O)NNC(=O)c2ccccc2Br)cc1	-6.35
CCOC(=O)C(C(=O)OCC)C(Nc1cccc(Br)c1)c1ccccc1 (centres unmarked)	14.1
COc1ccc(-c2noc(-c3ccccc3C(=O)Nc3cccnc3)n2)cc1OC	0.425
Nc1c(S(=O)(=O)c2ccccc2)cnc2c(-c3ccc(F)cc3)cnn12	0.0455

SMILES	hERG current change (%, negative = inhibition) at 1uM [%]
CCCn1cc(NC(=O)c2cc(-c3ccccc3)on2)cn1	-0.382
CC1CCN(c2ccc([N+](=O)[O-])cc2C(=O)O)CC1	12.6
Cc1ccc(C(=O)Nc2cc(=O)n(C)c(=O)n2C)cc1C	8.19
CCCOc1c(Cl)cc(/C=N/O)cc1OCC	5.27
Cl.O=C(OCCN1CCCCC1)c1ccc(Cl)cc1	-24.6
CC1(C)Cc2ccccc2-c2nnc(-c3cccnc3)n21	9.81
Nc1c(Cl)ncnc1N/N=C/c1cccc(O)c1	9.05
COc1ccc(S(=O)(=O)N2CCCOC2CNC(=O)C(=O)NCc2cccnc2)cc1 (centres unmarked)	8.74
COc1cccc2c1C(=O)C=C(C)C2=O	5.1
CC(=O)Nc1c(C#N)c(C(C)(C)C)cn1C	8.28
O=C(N[C@@H](Cc1ccccc1)C(=O)O)c1ccc(C(F)(F)F)cc1	5.8
CCCC(NS(=O)(=O)c1ccc(C)cc1)C(=O)O (centres unmarked)	7.83
COCC(=O)N=Nc1c(O)[nH]c2ccccc12	11.7
O=C(Oc1cccc(Oc2ccccc2)c1)N1CCOCC1	-5.48
CC(C)(C)c1ccc(S(=O)(=O)N2CCCC2C(=O)N2CCOCC2)cc1 (centres unmarked)	9.87
CC(O/N=C/c1ccccc1OC(F)F)C(=O)Nc1cccc(S(=O)(=O)N2CCOCC2)c1 (centres unmarked)	-14.9
CCOc1ccccc1CN1CCCC(CNC(=O)Cc2ccc(OC)cc2)C1 (centres unmarked)	5.39
Cc1ccc(C(=O)CC(C(=O)O)n2cnc([N+](=O)[O-])n2)cc1 (centres unmarked)	8.26
CC(C)CCCN1C(Nc2ccccc2)=NC[C@@H]1CC(C)C	-24.9
C=CCn1c(C)nc2ccccc2c1=O	13.2
CCC(C)c1ccccc1NS(=O)(=O)c1cnn(CC)c1 (centres unmarked)	8.63
COC(=O)/C(C#N)=C(/Nc1ccc(F)c(Cl)c1)C(F)(F)F	9.93
